± gives the standard deviation of the averaged measurements. This is one part of the list.
Each sequence was assayed on PfAP2-EXP AP2 domain (GST-tagged) (assay: gcPBM binding intensity (ln(normalized median fluorescence intensity)); higher = stronger DNA binding).
Outline: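 Binding intensity is defined as the maximum Masliner-normalised natural-log median intensity across replicate spots for either probe orientation. It was measured on an Agilent 4 × 180k array of primer-extended double-stranded 36-bp intergenic genomic probes and negative controls, to which GST-tagged P. falciparum DNA-binding domains made in E. coli were applied for 1 h in 1× PBS with 1% milk, 0.2 mg/ml BSA, 0.5% salmon testes DNA and 0.03% Triton X-100. Detection was by Alexa488 anti-GST antibody and scanning at 488 nm.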

| Sequence | gcPBM binding intensity (ln) |
| --- | --- |
| TTTCATTTAGCTTTTACACACTATATATTATTGATT [CACACA_site16] | 8.88 ± 0.45 |
| TATATACATACATGTAGTACCTAATTCGGTCCCGTA [XGTACX_site2702] | 8.8 ± 0.49 |
| ATTTTTTTTTTTTTTTTTTTTTTGTTTATACAAAAT [CACACA_negctrl_site1241] | 8.07 ± 0.56 |
| AAGATATTTGAATATACACACGATTTAAATTTAATA [CACACA_site3866] | 8.34 ± 0.5 |
| ATACGTGGGCAAAAAGTGCATATAATCAAAAAAAAA [GTGCAC_site9961] | 8.81 ± 0.38 |
| ATATATATATTTGTATGTACATATCATATTGTGTGT [XGTACX_site1580] | 9.33 ± 0.17 |
| TTCTTTCTGTTTTATTTATAATAATTTATGATAAAA [CACACA_negctrl_site766] | 8.69 ± 0.32 |
| TGTTTTTAATTTCGCACACACCTTGTGGAAAAAAAA [CACACA_site4482] | 8.36 ± 0.36 |
| TTGAAATATACGTAAGTAAATTTCATTTGGTTGTGT [XGTACX_negctrl_site600] | 8.28 ± 0.39 |
| AAAATATTTATTACTTCACACATTATTGTATTTATA [CACACA_site5082] | 8.65 ± 0.44 |
| CATATATTATTATATGCACACATGAAAATATACAAA [CACACA_site2795] | 8.65 ± 0.28 |
| ACGTATAATATGTACACACACATATATACAAAAAAA [CACACA_site917] | 8.57 ± 0.3 |
| TTTCTTTTTTTATAATCCACATTGGGAAAATCAAAA [TGCATGCA_negctrl_site159] | 8.36 ± 0.41 |
| GTATAACTTTTGCGCGTACACACATTTATCCTCTTT [CACACA_site208] | 9.87 ± 0.55 |
| TAGAATATCCCCTACACACCCAAATAATTTACAAAT [CACACA_site4825] | 9.51 ± 0.67 |
| AAAGTTGTTACGAACATACACACGAACATACTCACG [CACACA_site604] | 8.7 ± 0.69 |
| TAAGTAACTTTTAAAAGTACCCACACATATATATAT [XGTACX_site1231] | 9.915 ± 0.035 |
| TCATTTTATTTTTTCACACACACATCTATATTTATA [CACACA_site7547] | 8.86 ± 0.31 |
| ACAAAAATAAACTATAGTACACACTTATTATTATGA [XGTACX_site5680] | 8.34 ± 0.31 |
| TTTCTTTTTTTTTTTTTTTTTTTTTTTTTTTTTTTT [TGCATGCA_negctrl_site91] | 9.26 ± 0.21 |
| TTATGTATTTATATAAATATAAATATATATATATAT [CACACA_negctrl_site774] | 9.92 ± 0.23 |
| TATATTTATAGGTATACACACATATGTATGTTATGT [CACACA_site7824] | 8.43 ± 0.35 |

| Sequence | gcPBM binding intensity (ln) |
| --- | --- |
| AAAAAAAAGAAAAACACACACATATATATATAGAAT [CACACA_site1006] | 8.71 ± 0.68 |
| TTTCCCTTGTTGTAAACATGCACAATATTTAGGTAT [TGCATGCA_site49] | 8.68 ± 0.34 |
| ATACATATAAATAATTGTACTATTAAAAAAGAACGT [XGTACX_site3751] | 9.14 ± 0.58 |
| ATAATATATTTTTGTAGTACACTTCTGGTAATATCG [XGTACX_site2402] | 8.87 ± 0.49 |
| AGTATACAGATATATACACACATATATATATATATA [CACACA_site4323] | 10 ± 0.41 |
| CTTAGAATATATGAATGTACTTTTTTTTTTAAATAA [XGTACX_site6048] | 8.15 ± 0.15 |
| CAATTAGCATTTTATTGTACATTTATAATCTATGAT [XGTACX_site1445] | 8.59 ± 0.38 |
| AAAAAAAAAAATACTCGTACATAAACCTATACATTT [XGTACX_site6494] | 8.51 ± 0.45 |
| TATATATATATATGTTGTACAAAAATGTAAAATATA [XGTACX_site7761] | 10 ± 0.31 |
| ATAATATTAATATGTACACACCTTAATCCTTAAAAG [CACACA_site7640] | 8.52 ± 0.35 |
| ATAATTTTTTAAGTGTGTACTAAAATGTGTATTTTA [XGTACX_site6227] | 8.45 ± 0.33 |
| TATACCTGAATTAAAAGTACATGTATATATTTTCCC [XGTACX_site3594] | 8.44 ± 0.3 |
| GTATTTATATGATTAACACACATATGGGTATTAATA [CACACA_site4853] | 8.52 ± 0.35 |
| TTGCATTTTCTAGTAACACACAATTAGCGTTGCTGT [CACACA_site3594] | 8.54 ± 0.6 |
| TATAGAAGCATTCACACACACACATACATACACATA [CACACA_site1466] | 8.62 ± 0.45 |
| TAACAAAAAGGGAACACATGCGCTCTTTATTTATTT [TGCATGCA_site620] | 8.51 ± 0.46 |
| AATATATGAATTATATGTACATATAGATAAGTCACA [XGTACX_site7637] | 8.71 ± 0.42 |
| TCTTAATATCGTTTCTCACACATATACAAACATAAA [CACACA_site5700] | 8.62 ± 0.49 |
| TATTATAGAAATTTAATGTTGGACAAAAAAATGAAA [CACACA_negctrl_site1351] | 8.61 ± 0.44 |
| AAATTATTTATTTTATGTACATATTATTAAAGTTAA [XGTACX_site552] | 8.38 ± 0.25 |
| AGAGAGAAAGCTATAACATGCAACAATTTTTAGAAC [TGCATGCA_site596] | 9 ± 0.3 |
| ATAAATGACAAATTAACACACATATATTATAGATAT [CACACA_site7770] | 8.44 ± 0.47 |
